Reference: a collection of fitness landscapes (doi:10.1126/science.1257360)
Some of the results follow.

B1: PhoQ; a variant is named by its letters at X, in order, P23837 (parent)
chain: MKKLLRLFFPLSLRVRFLLATAAVVLVLSLAYGMVALIGYSVSFDKTTFRLLRGESNLFYTLAKWENNKLHVELPENIDKQSPTMTLIYDENGQLLWAQRDVPWLMKMIQPDWLKSNGFHEIEADVNDTSLLLSGDHSIQQQLQEVREDDDDAEMTHSVAVNVYPATSRMPKLTIVVVDTIPVELKSSYMVWSWFIYVLSANLLLVIPLLWVAAWWSLRPIEALAKEVRELEEHNRELLNPATTRELTSLVRNLNRLLKSERERYDKYRTTLTDLTHSLKTPLXXLQXXLRSLRSEKMSVSDAEPVMLEQISRISQQIGYYLHRASMRGGTLLSRELHPVAPLLDNLTSALNKVYQRKGVNISLDISPEISFVGEQNDFVEVMGNVLDNACKYCLEFVEISARQTDEHLYIVVEDDGPGIPLSKREVIFDRGQRVDTLRPGQGVGLAVAREITEQYEGKIVAGESMLGGARMEVIFGRQHSAPKDE

Variants of: B1
Experiment: enrichment ratio after two sorts for PhoP signalling (ratio (wild type AVST 3.29)); higher = more functional
Settings: with PhoP (E. coli)

Row | Variant | enrichment ratio
1 | WEAK | ≤ 0.25
2 | GGYM | ≤ 0.25
3 | FETL | 0.987
4 | GGYT | ≤ 0.25
5 | LCLY | ≤ 0.25
6 | FAVW | ≤ 0.25
7 | PLDF | ≤ 0.25
8 | SDNV | ≤ 0.25
9 | PIWF | ≤ 0.25
10 | GDPW | ≤ 0.25
11 | QIVY | ≤ 0.25
12 | DATF | ≤ 0.25
13 | PYSE | ≤ 0.25
14 | WDII | ≤ 0.25
15 | YEPN | ≤ 0.25
16 | DELI | ≤ 0.25
17 | DSCN | ≤ 0.25
18 | RDNF | ≤ 0.25
19 | FEAN | ≤ 0.25
20 | PSDR | ≤ 0.25
21 | PDEP | ≤ 0.25
22 | PPST | ≤ 0.25
23 | AFGA | ≤ 0.25
24 | WYFT | ≤ 0.25

Row | Variant | enrichment ratio
25 | WGRG | ≤ 0.25
26 | KNNF | ≤ 0.25
27 | HNNA | ≤ 0.25
28 | TDRV | ≤ 0.25
29 | PFYV | ≤ 0.25
30 | TSNH | 9.11
31 | MKYV | ≤ 0.25
32 | MRKF | ≤ 0.25
33 | QSGN | 1.27
34 | PPWC | ≤ 0.25
35 | HIQV | ≤ 0.25
36 | EDHK | ≤ 0.25
37 | SCTM | 17.9
38 | GQDI | ≤ 0.25
39 | ELKR | ≤ 0.25
40 | MHIP | ≤ 0.25
41 | YYRI | ≤ 0.25
42 | FLIQ | ≤ 0.25
43 | AVPS | ≤ 0.25
44 | QEKC | ≤ 0.25
45 | NPVI | ≤ 0.25
46 | DEWF | ≤ 0.25
47 | WQTM | ≤ 0.25
48 | RGEQ | ≤ 0.25

Row | Variant | enrichment ratio
49 | SCGD | ≤ 0.25
50 | DFGA | ≤ 0.25
51 | YGPF | ≤ 0.25
52 | LRFA | ≤ 0.25
53 | HNES | ≤ 0.25
54 | RTGS | ≤ 0.25
55 | RCFD | ≤ 0.25
56 | SDYA | ≤ 0.25
57 | RRYQ | ≤ 0.25
58 | YTWF | ≤ 0.25
59 | MIFL | 2.53
60 | NWDH | ≤ 0.25
61 | IFQC | ≤ 0.25
62 | ICLK | ≤ 0.25
63 | TGYM | 26.5
64 | IPSY | ≤ 0.25
65 | WKMF | ≤ 0.25
66 | HPGC | ≤ 0.25
67 | SPWT | ≤ 0.25
68 | MSPT | ≤ 0.25
69 | WIPC | ≤ 0.25
70 | WAGW | ≤ 0.25
71 | EPPM | ≤ 0.25
72 | WREG | ≤ 0.25

Row | Variant | enrichment ratio
73 | WIFD | ≤ 0.25
74 | IMFF | ≤ 0.25
75 | RMQY | ≤ 0.25
76 | ADLK | ≤ 0.25
77 | KFHH | ≤ 0.25
78 | YEWN | 0.272
79 | WCYK | ≤ 0.25
80 | YPSF | ≤ 0.25
81 | KGSC | ≤ 0.25
82 | KLGH | ≤ 0.25
83 | WIWD | ≤ 0.25
84 | DKLP | ≤ 0.25
85 | RYHG | ≤ 0.25
86 | HYWY | ≤ 0.25
87 | LYHQ | ≤ 0.25
88 | IVRI | ≤ 0.25
89 | TTCQ | 18.9
90 | QAHS | ≤ 0.25
91 | GLVW | ≤ 0.25
92 | ATGS | 5.38
93 | FMHS | ≤ 0.25
94 | GISS | 13.5
95 | AVVP | ≤ 0.25
96 | RRFS | ≤ 0.25

Row | Variant | enrichment ratio
97 | IPFT | ≤ 0.25
98 | MNNP | ≤ 0.25
99 | LFDP | ≤ 0.25
100 | LTGQ | ≤ 0.25
101 | IFRL | ≤ 0.25
102 | EVDI | ≤ 0.25
103 | MRMS | ≤ 0.25
104 | VILS | ≤ 0.25
105 | NILQ | ≤ 0.25
106 | TRNE | ≤ 0.25
107 | RKSL | ≤ 0.25
108 | QGRL | ≤ 0.25
109 | VVHS | ≤ 0.25
110 | MQCS | 1.74
111 | WVMD | ≤ 0.25
112 | LQEE | ≤ 0.25
113 | VFIV | ≤ 0.25
114 | PYKF | ≤ 0.25
115 | YHCY | ≤ 0.25
116 | SCIQ | 2.92
117 | SNSY | 12.8
118 | DNKF | ≤ 0.25
119 | GFEH | ≤ 0.25
120 | DIHD | ≤ 0.25

Row | Variant | enrichment ratio
121 | FIKS | ≤ 0.25
122 | FHYC | ≤ 0.25
123 | FDWS | ≤ 0.25
124 | GDVV | 6.77
125 | WDMV | ≤ 0.25
126 | WTIM | ≤ 0.25
127 | TNFW | ≤ 0.25
128 | ALSR | 0.524
129 | YICA | ≤ 0.25
130 | VQQT | ≤ 0.25
131 | WCRY | ≤ 0.25
132 | DMTK | ≤ 0.25
133 | ASKT | ≤ 0.25
134 | FDQD | ≤ 0.25
135 | FEDA | ≤ 0.25
136 | TYML | 0.784
137 | WPMY | ≤ 0.25
138 | TNEH | ≤ 0.25
139 | HFCA | ≤ 0.25
140 | HHAS | ≤ 0.25
141 | RKGE | ≤ 0.25
142 | ASMM | 41.3
143 | VHLP | ≤ 0.25
144 | AWYI | ≤ 0.25

Row | Variant | enrichment ratio
145 | AENK | ≤ 0.25
146 | GSQT | ≤ 0.25
147 | IVVP | ≤ 0.25
148 | VPYK | ≤ 0.25
149 | LWGV | ≤ 0.25
150 | SQLP | ≤ 0.25
151 | RFTP | ≤ 0.25
152 | FYVM | ≤ 0.25
153 | YFDN | ≤ 0.25
154 | SFNW | ≤ 0.25
155 | SHPR | ≤ 0.25
156 | FVQA | ≤ 0.25
157 | IPIY | ≤ 0.25
158 | LINA | ≤ 0.25
159 | ITEL | ≤ 0.25
160 | SLAC | 2.46
161 | LPMY | 1.78
162 | KIWM | ≤ 0.25
163 | VNHF | ≤ 0.25
164 | VIFW | ≤ 0.25
165 | VTDI | ≤ 0.25
166 | QTIT | ≤ 0.25
167 | GSVQ | 6.76
168 | SREK | ≤ 0.25

Row | Variant | enrichment ratio
169 | LGNC | ≤ 0.25
170 | VMYD | ≤ 0.25
171 | GQFD | ≤ 0.25
172 | FEYR | ≤ 0.25
173 | YHSG | ≤ 0.25
174 | WYQP | ≤ 0.25
175 | IDAE | ≤ 0.25
176 | YSLH | 5.18
177 | ETKS | ≤ 0.25
178 | KQSV | ≤ 0.25
179 | FARC | ≤ 0.25
180 | IYNE | ≤ 0.25
181 | YSIW | ≤ 0.25
182 | PRVR | ≤ 0.25
183 | KPND | ≤ 0.25
184 | SSFW | ≤ 0.25
185 | SFTD | ≤ 0.25
186 | RALL | ≤ 0.25
187 | IVPA | ≤ 0.25
188 | KTMM | ≤ 0.25
189 | ITYH | ≤ 0.25
190 | SAFR | ≤ 0.25
191 | NNWW | ≤ 0.25
192 | ITRC | ≤ 0.25

Row | Variant | enrichment ratio
193 | YTKE | ≤ 0.25
194 | LCST | ≤ 0.25
195 | RTLQ | ≤ 0.25
196 | KFLP | ≤ 0.25
197 | TQLC | 13.1
198 | YKHW | ≤ 0.25
199 | YRIH | ≤ 0.25
200 | QRNL | ≤ 0.25
201 | GFHE | ≤ 0.25
202 | VGPR | ≤ 0.25
203 | SFTC | 0.693
204 | IYNY | ≤ 0.25
205 | PMHY | ≤ 0.25
206 | MDNK | ≤ 0.25
207 | ESQM | ≤ 0.25
208 | TAFG | ≤ 0.25
209 | AKQM | ≤ 0.25
210 | FESD | ≤ 0.25
211 | WSTP | ≤ 0.25
212 | TVCV | 2.24
213 | GKNV | ≤ 0.25
214 | HADP | ≤ 0.25
215 | DGPP | ≤ 0.25
216 | WACK | ≤ 0.25

Row | Variant | enrichment ratio
217 | HIWV | ≤ 0.25
218 | LVMQ | ≤ 0.25
219 | SPLC | ≤ 0.25
220 | EMVA | ≤ 0.25
221 | SIKR | ≤ 0.25
222 | NQCT | ≤ 0.25
223 | FAYW | ≤ 0.25
224 | RWDS | ≤ 0.25
225 | FVIY | ≤ 0.25
226 | HWGT | ≤ 0.25
227 | YYTY | ≤ 0.25
228 | QISF | 1.79
229 | VMEM | ≤ 0.25
230 | THQK | ≤ 0.25
231 | MECR | ≤ 0.25
232 | YQPQ | ≤ 0.25
233 | IGDW | ≤ 0.25
234 | VYKF | ≤ 0.25
235 | GAPK | ≤ 0.25
236 | GMQH | ≤ 0.25
237 | TEVI | 12.8
238 | GPHV | ≤ 0.25
239 | GWAR | ≤ 0.25
240 | ILQR | ≤ 0.25

Row | Variant | enrichment ratio
241 | RTCL | ≤ 0.25
242 | FDPL | ≤ 0.25
243 | MKIK | ≤ 0.25
244 | RVVQ | ≤ 0.25
245 | MVNK | ≤ 0.25
246 | DPCQ | ≤ 0.25
247 | VLCI | ≤ 0.25
248 | SERQ | ≤ 0.25
249 | HYMH | ≤ 0.25
250 | MCVS | ≤ 0.25
251 | PAYC | ≤ 0.25
252 | IHLH | ≤ 0.25
253 | TTSW | 1.4
254 | TKDA | ≤ 0.25
255 | ANGR | ≤ 0.25
256 | YCSG | 0.266
257 | PMCP | ≤ 0.25
258 | QDFH | ≤ 0.25
259 | KGPV | ≤ 0.25
260 | ITIT | ≤ 0.25
261 | VKPI | ≤ 0.25
262 | FSGS | ≤ 0.25
263 | RQMW | ≤ 0.25
264 | QCQH | ≤ 0.25

Row | Variant | enrichment ratio
265 | WFLV | ≤ 0.25
266 | IQPD | ≤ 0.25
267 | NHSC | ≤ 0.25
268 | MPQM | ≤ 0.25
269 | PISV | ≤ 0.25
270 | FWGF | ≤ 0.25
271 | AYCG | 1.8
272 | RFYQ | ≤ 0.25
273 | MLQL | ≤ 0.25
274 | SLSA | 2.05
275 | WRGV | ≤ 0.25
276 | KSPN | ≤ 0.25
277 | YRAL | ≤ 0.25
278 | WPFM | ≤ 0.25
279 | QQMC | ≤ 0.25
280 | KIYS | ≤ 0.25
281 | PCKS | ≤ 0.25
282 | WISR | ≤ 0.25
283 | WNLF | ≤ 0.25
284 | VPCY | ≤ 0.25
285 | FFTG | ≤ 0.25
286 | IRDP | ≤ 0.25
287 | IMAE | ≤ 0.25
288 | ADFR | ≤ 0.25

Row | Variant | enrichment ratio
289 | KDDP | ≤ 0.25
290 | RTIQ | ≤ 0.25
291 | TAYV | 4.62
292 | LCIT | ≤ 0.25
293 | WMAS | ≤ 0.25
294 | QGER | ≤ 0.25
295 | VPGT | ≤ 0.25
296 | GKEH | ≤ 0.25
297 | WAPN | ≤ 0.25
298 | RQQP | ≤ 0.25
299 | PTPF | 0.27
300 | WNVP | ≤ 0.25
301 | EYTC | ≤ 0.25
302 | EYQV | ≤ 0.25
303 | WRII | ≤ 0.25
304 | LYEW | ≤ 0.25
305 | HETN | ≤ 0.25
306 | WNSR | ≤ 0.25
